The text below walks through data of a collection of fitness landscapes (doi:10.1016/j.celrep.2020.107928).

Whole data set: some 81,000 sequences, median “one-hybrid fitness for binding parS DNA” near -0.17, cut for the highest 2% near 0.51. This is one part of the list. Where only a bound is given, the exact number is not on record here.

Sequences and labels used below:
B1: Caulobacter ParB omega fusion; a variant is named by its letters at X, in order, B8GW30 (parent)
chain: MESVVVGEPGMSEGRRGLGRGLSALLGEVDAAPAQAPGEQLGGSREAPIEILQRNPDQPRRTFREEDLEDLSNSIREKGVLQPILVRPSPDTAGEYQIVAGERAWRAAQRAGLKTVPIMVRELDDLAVLEIGIIENVQRADLNVLEEALSYKVLMEKFERTQENIAQTIGKSXSHVANXMRLLXLPDEVQSYLVSGELTAXHARAIAAAADPVALAKQIIEGGLSVRETEALARKAPNLSAGKSKGGRPPRVKDTDTQALESDLSSVLGLDVSIDHRGSTGTLTITYATLEQLDDLCNRLTRGI

This assay covers variants of B1. Briefly: one-hybrid fitness for binding parS DNA (scaled: cognate 1, non-cognate 0); higher = stronger binding. The note with it: with parS DNA site. The method in brief: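 Bacterial one-hybrid selection in E. coli USO rpoZ- hisB- pyrF- with a HIS3 reporter carrying the site 19 bp from the promoter, screening Caulobacter ParB libraries with four specificity codons randomised (NNS). Cells grew 48 hours at 37°C on M9-minus-histidine plus 0.1 mM IPTG and 5 mM 3-AT. Plasmids before and after selection were Illumina-sequenced, three replicate libraries pooled, and variants under 10 reads dropped. Fitness is the log change in variant-to-wild-type read ratio, rescaled to cognate 1, non-cognate 0.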
With GSQN, the “one-hybrid fitness for binding parS DNA” value is at most 0.2.
The value for PALN was at most 0.2; that for YNCF was at most 0.2.
Take SVTN: the “one-hybrid fitness for binding parS DNA” value was at most 0.2.
The value for ANNN was at most 0.2; that for CHWS was at most 0.2; that for CLMR was at most 0.2.
On to DTIL, for which the “one-hybrid fitness for binding parS DNA” value is at most 0.2.
The value for PCAP was at most 0.2.
As for KHAS, the figure is at most 0.2; as for YDHE, at most 0.2; as for KIIC, at most 0.2.
With RVRQ, the “one-hybrid fitness for binding parS DNA” value is at most 0.2.
The value for AMFL was at most 0.2.
Regarding QRLP, the “one-hybrid fitness for binding parS DNA” value was at most 0.2.
As for MVPW, the figure is at most 0.2.
As for MRRL, the figure is at most 0.2; as for KRNF, at most 0.2; as for HIMY, at most 0.2.
For YAWL, the “one-hybrid fitness for binding parS DNA” value is at most 0.2.
As for DTWR, the figure is at most 0.2; as for VPSH, at most 0.2; as for FVTT, at most 0.2.
As for NLAR, the figure is at most 0.2.
As for QGKI, the “one-hybrid fitness for binding parS DNA” value is at most 0.2.
As for MMMS, the figure is at most 0.2; as for RMQG, 1.01.
As for EVHR, the figure is at most 0.2.
As for LHPD, the figure is at most 0.2; as for PHQK, at most 0.2; as for PKPM, at most 0.2.
Consider TRDE, for which the “one-hybrid fitness for binding parS DNA” value is at most 0.2.
As for KQHS, the figure is at most 0.2.
NMYR: the “one-hybrid fitness for binding parS DNA” value was at most 0.2.
As for TIGV, the figure is at most 0.2.
With PARN, the “one-hybrid fitness for binding parS DNA” value is at most 0.2.
Consider LMKL, for which the “one-hybrid fitness for binding parS DNA” value was at most 0.2.
The value for PDMT was at most 0.2; that for KHLT was at most 0.2.
In the case of HQMR, the “one-hybrid fitness for binding parS DNA” value was at most 0.2.
The value for IVRS was at most 0.2; that for YAII was at most 0.2; that for AIPS was at most 0.2.
As for EANY, the figure is at most 0.2; as for IRKQ, at most 0.2; as for ACIG, at most 0.2.
The value for KDRC was at most 0.2.
For the variant CCKV, the “one-hybrid fitness for binding parS DNA” value is at most 0.2.
For WCCR, the “one-hybrid fitness for binding parS DNA” value was at most 0.2.
Turning to AGEN, the “one-hybrid fitness for binding parS DNA” value was at most 0.2.
The value for MLNF was at most 0.2.
The value for SHPS was at most 0.2; that for LSRR was at most 0.2.
Consider KVMN, for which the “one-hybrid fitness for binding parS DNA” value is at most 0.2.
As for DSLY, the figure is at most 0.2; as for NNKR, at most 0.2.
As for FRPW, the figure is at most 0.2; as for VHFT, at most 0.2.
HVKT: the “one-hybrid fitness for binding parS DNA” value was at most 0.2.
Turning to GHLN, the “one-hybrid fitness for binding parS DNA” value is at most 0.2.
The value for QMWM was at most 0.2; that for TGAG was at most 0.2.
As for KVLC, the figure is at most 0.2; as for MYMA, at most 0.2; as for DYMF, at most 0.2.
Turning to ARTE, the “one-hybrid fitness for binding parS DNA” value was at most 0.2.
As for TFAS, the figure is at most 0.2.
As for EVDR, the figure is at most 0.2.
As for RTYA, the figure is 0.606; as for DSFY, at most 0.2.
For the variant AMNW, the “one-hybrid fitness for binding parS DNA” value is at most 0.2.
The value for HHSC was at most 0.2.
As to TAQR, the “one-hybrid fitness for binding parS DNA” value was at most 0.2.
As for SITW, the figure is at most 0.2.
The value for MVNM was at most 0.2; that for AFAT was at most 0.2.
For NAHT, the “one-hybrid fitness for binding parS DNA” value is at most 0.2.
As for IKAY, the figure is at most 0.2.
In the case of TTQK, the “one-hybrid fitness for binding parS DNA” value was at most 0.2.
The value for SKFV was at most 0.2; that for TILM was at most 0.2; that for SNSQ was at most 0.2.
As for APFT, the figure is at most 0.2.
As for RSKN, the figure is 0.443; as for ILEV, at most 0.2; as for QQSE, at most 0.2.
With SVGM, the “one-hybrid fitness for binding parS DNA” value is at most 0.2.
The value for TGCR was at most 0.2.
The value for INRT was at most 0.2.
The value for EALT was at most 0.2; that for ALSK was at most 0.2; that for QSSI was at most 0.2.
Regarding FWYS, the “one-hybrid fitness for binding parS DNA” value was at most 0.2.
On to HDHI, for which the “one-hybrid fitness for binding parS DNA” value is at most 0.2.
As for WHHT, the figure is at most 0.2; as for QAVT, at most 0.2.
As for RWWN, the figure is at most 0.2; as for KALA, at most 0.2; as for LYMW, at most 0.2.
For SESF, the “one-hybrid fitness for binding parS DNA” value is at most 0.2.
The value for VFHG was at most 0.2; that for PLEC was at most 0.2.
As for PPGW, the figure is at most 0.2; as for YKVR, at most 0.2; as for PWPP, at most 0.2.
As for KPRG, the figure is at most 0.2; as for QHDW, at most 0.2; as for WYMG, at most 0.2.
Regarding IHVR, the “one-hybrid fitness for binding parS DNA” value is at most 0.2.
The value for SMKA was at most 0.2; that for RCDW was at most 0.2; that for YYVT was at most 0.2.
The value for SYRN was at most 0.2; that for CDCG was at most 0.2; that for PRHL was at most 0.2.
Consider HRNT, for which the “one-hybrid fitness for binding parS DNA” value is at most 0.2.
For NMAT, the “one-hybrid fitness for binding parS DNA” value is at most 0.2.
The value for NHRG was at most 0.2; that for MPFH was at most 0.2; that for QSCK was at most 0.2.
As for VIYD, the figure is at most 0.2.
For GMIG, the “one-hybrid fitness for binding parS DNA” value was at most 0.2.
As for MRTC, the figure is at most 0.2; as for TWSL, at most 0.2.
The value for CNDR was at most 0.2; that for QAAE was at most 0.2.
As to HKQM, the “one-hybrid fitness for binding parS DNA” value is at most 0.2.
As for QFVT, the figure is at most 0.2.
As for PHNL, the “one-hybrid fitness for binding parS DNA” value is at most 0.2.
As for TKST, the figure is at most 0.2; as for AGYV, at most 0.2; as for NHDQ, at most 0.2.
As to DVNP, the “one-hybrid fitness for binding parS DNA” value was at most 0.2.
As for RASY, the figure is 0.459.
As for QAKV, the figure is at most 0.2.
On to PKDR, for which the “one-hybrid fitness for binding parS DNA” value was at most 0.2.
As for TTRF, the figure is at most 0.2.
As for LFKV, the figure is at most 0.2; as for YCER, at most 0.2; as for RWRS, 0.955.
Take HAPL: the “one-hybrid fitness for binding parS DNA” value was at most 0.2.
As for NMGD, the figure is at most 0.2; as for LEFG, at most 0.2.
The value for TPLN was at most 0.2.
Turning to QPGT, the “one-hybrid fitness for binding parS DNA” value is at most 0.2.
Take VCAF: the “one-hybrid fitness for binding parS DNA” value was at most 0.2.
As for LLPV, the figure is at most 0.2.
As for NGTG, the figure is at most 0.2; as for VRKN, at most 0.2; as for GAEM, at most 0.2.
The value for CVSL was at most 0.2; that for SATY was at most 0.2.
With KDDG, the “one-hybrid fitness for binding parS DNA” value was at most 0.2.
